In article PMC3042988, “The activation mechanism of Irga6, an interferon-inducible GTPase contributing to mouse resistance against Toxoplasma gondii” (BMC Biology, 2011):
Positions count from the first letter of the chain named. In names and notes the source's numbering stands. No constants are given. Whether binding was seen depends on the method and setting. For some of these results: Binding seen in cells or lysates may run through a third protein. Some entries that bind do so weakly or less than the wild type. For some of these results: Where a sequence is shown, tags or fusion partners need not be part of it.

Key:
[1] = molecular target: T1, recombinant GST-tagged Irga6, wild type (mouse) (UniProt Q9QZ85); assay: pull-down; GST-Irga6 bound to glutathione Sepharose 4B, incubated overnight at 4°C with postnuclear supernatant of IFNγ-induced gs3T3 cells (PBS/0.1% Thesit/3 mM MgCl2) with 0.5 mM GDP; Western blot; only the target purified
T1 sequence: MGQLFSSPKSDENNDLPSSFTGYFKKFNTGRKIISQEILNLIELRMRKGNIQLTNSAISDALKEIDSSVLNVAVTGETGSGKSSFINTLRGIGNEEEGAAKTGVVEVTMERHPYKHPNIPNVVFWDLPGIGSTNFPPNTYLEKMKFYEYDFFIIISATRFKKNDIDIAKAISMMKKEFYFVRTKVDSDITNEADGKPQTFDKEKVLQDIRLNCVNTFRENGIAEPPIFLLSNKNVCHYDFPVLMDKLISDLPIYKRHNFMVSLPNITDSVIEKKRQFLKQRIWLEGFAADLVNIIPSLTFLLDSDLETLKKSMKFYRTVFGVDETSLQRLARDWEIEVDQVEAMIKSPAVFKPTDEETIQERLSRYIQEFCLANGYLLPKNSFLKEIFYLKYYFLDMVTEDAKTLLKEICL

[2] = molecular target: T1, recombinant GST-tagged Irga6, wild type (mouse); assay: pull-down; GST-Irga6 bound to glutathione Sepharose 4B, incubated overnight at 4°C with postnuclear supernatant of IFNγ-induced gs3T3 cells (PBS/0.1% Thesit/3 mM MgCl2) with 0.5 mM GTPγS; Western blot; only the target purified
[3] = molecular target: T1, recombinant GST-tagged Irga6, wild type (mouse); assay: condition: only with 0.5 mM mant-GDP in place of GDP; pull-down; GST-Irga6 bound to glutathione Sepharose 4B, incubated overnight at 4°C with postnuclear supernatant of IFNγ-induced gs3T3 cells (PBS/0.1% Thesit/3 mM MgCl2) with 0.5 mM mant-GDP; Western blot; only the target purified
Irga6-E77A (mouse) = Irga6-E77A (mouse) (UniProt Q9QZ85); assay: light scattering; self-association (oligomerisation) of 80 μM Irga6 with 10 mM GTP at 37°C; B1 buffer (50 mM Tris/HCl pH 7.4, 5 mM MgCl2)/2 mM DTT; conventional light scattering at 350 or 600 nm; both purified
Irga6-D164N (mouse) = Irga6-D164N (mouse) (UniProt Q9QZ85); assay: dynamic light scattering; self-association (oligomerisation) of 80 μM Irga6 mutant proteins with 10 mM GTP (GDP as comparison), DLS at 650 nm, 37°C (Asp164 mutants 20°C or 37°C); B1 buffer/2 mM DTT; both purified
[4] = molecular target: Irga6 (IIGP1), wild type, recombinant, GST cleaved off (mouse) (UniProt Q9QZ85); assay: light scattering + other: dynamic light scattering; Irga6 in the presence of GDP at 37°C; B1 buffer/2 mM DTT; both purified
[5] = molecular target: Irga6 (IIGP1), wild type, recombinant, GST cleaved off (mouse) (UniProt Q9QZ85); assay: light scattering + other: dynamic light scattering; self-association of 80 μM WT Irga6 with 10 mM 3'dGTP at 37°C; both purified
[6] = molecular target: Irga6 (IIGP1), wild type, recombinant, GST cleaved off (mouse) (UniProt Q9QZ85); assay: condition: only with 10 mM mant-GTP in place of GTP; light scattering; self-association of 80 μM WT Irga6 with 10 mM mant-GTP at 37°C; both purified
[7] = molecular target: Irga6 (IIGP1), wild type, recombinant, GST cleaved off (mouse) (UniProt Q9QZ85); assay: condition: only with 10 mM 2'3'ddGTP in place of GTP; light scattering + other: dynamic light scattering; self-association of 80 μM WT Irga6 with 10 mM 2'3'ddGTP at 37°C; both purified
Irga6-D186N (mouse) = Irga6-D186N (mouse) (UniProt Q9QZ85); assay: light scattering; self-association of 80 μM Irga6-D186N with 10 mM GTP and 1 mM XTP added, 37°C; both purified
Irga6-R159E (mouse) = Irga6-R159E (mouse) (UniProt Q9QZ85); assay: light scattering; self-association (oligomerisation) of 80 μM Irga6 with 10 mM GTP at 37°C; B1 buffer (50 mM Tris/HCl pH 7.4, 5 mM MgCl2)/2 mM DTT; conventional light scattering at 350 or 600 nm; both purified
Irga6-K161E (mouse) = Irga6-K161E (mouse) (UniProt Q9QZ85); assay: as above
Irga6-N191R (mouse) = Irga6-N191R (mouse) (UniProt Q9QZ85); assay: as above
Irga6-K196D (mouse) = Irga6-K196D (mouse) (UniProt Q9QZ85); assay: as above
Irga6-E106K (mouse) = Irga6-E106K (mouse) (UniProt Q9QZ85); assay: dynamic light scattering; self-association (oligomerisation) of 80 μM Irga6 mutant proteins with 10 mM GTP (GDP as comparison), DLS at 650 nm, 37°C (Asp164 mutants 20°C or 37°C); B1 buffer/2 mM DTT; both purified

B1: Irgb6 (TGTP) (protein, UniProt Q62293 1-415)
chain: MAWASSFDAFFKNFKRESKIISEYDITLIMTYIEENKLQKAVSVIEKVLRDIESAPLHIAVTGETGAGKSTFINTLRGVGHEEKGAAPTGAIETTMKRTPYPHPKLPNVTIWDLPGIGTTNFTPQNYLTEMKFGEYDFFIIISATRFKENDAQLAKAIAQMGMNFYFVRTKIDSDLDNEQKFKPKSFNKEEVLKNIKDYCSNHLQESLDSEPPVFLVSNVDISKYDFPKLETKLLQDLPAHKRHVFSLSLQSLTEATINYKRDSLKQKVFLEAMKAGALATIPLGGMISDILENLDETFNLYRSYFGLDDASLENIAQDLNMSVDDFKVHLRFPHLFAEHNDESLEDKLFKYIKHISSVTGGPVAAVTYYRMAYYLQNLFLDTAANDAIALLNSKALFEKKVGPYISEPPEYWEA
Q: Which results are given for B1?
A: binding [1]: no binding (condition: with 0.5 mM GDP in place of GTPγS); binding [2]: binds

B2: Irgm3 (IGTP) (protein, UniProt Q9DCE9 1-423)
chain: MDLVTKLPQNIWKTFTLFINMANYLKRLISPWSKSMTAGESLYSSQNSSSPEVIEDIGKAVTEGNLQKVIGIVKDEIQSKSRYRVKIAVTGDSGNGMSSFINALRFIGHEEEDSAPTGVVRTTKKPACYSSDSHFPYVELWDLPGLGATAQSVESYLEEMQISTFDLIIIVASEQFSSNHVKLAITMQRMRKRFYVVWTKLDRDLSTSTFPEPQLLQSIQRNIRENLQQAQVRDPPLFLISCFSPSFHDFPELRNTLQKDIFSIRYRDPLEIISQVCDKCISNKAFSLKEDQMLMKDLEAAVSSEDDTANLERGLQTYQKLFGVDDGSLQQVARSTGRLEMGSRALQFQDLIKMDRRLELMMCFAVNKFLRLLESSWWYGLWNVVTRYFRHQRHKLVIEIVAENTKTSLRKALKDSVLPPEIH
Q: With B2 as the binder, how does the binding [1] read?
A: The binding was “binds”.

Q: What about the binding [3] of the same binder?
A: Its binding is “no binding”.

B3: Irga6-E77A (enzyme, UniProt Q9QZ85 1-411)
chain: T1 sequence with E77A
Q: B3 was tested. Which binding (Irga6-E77A (mouse)) did it give?
A: The binding was “no binding (tested: 80 μM)”.

B4: Irga6-D164N (enzyme, UniProt Q9QZ85 1-411)
chain: T1 sequence with D164N
Q: How did the binding (Irga6-D164N (mouse)) turn out when B4 was run?
A: The binding was “no binding (tested: 80 μM)”.

B5: Irga6 (IIGP1), wild type, recombinant, GST cleaved off (enzyme, mouse)
chain: T1 sequence
notes: Irga6 (IIGP1), mouse immunity-related GTPase; also called WT Irga6; source: E. coli BL21, purified (glutathione Sepharose, GST cleaved off with thrombin, Superdex 75); not shown: GST, N-terminal, cleaved
Q: How did the binding [4] turn out when B5 was run?
A: The binding was “no binding (condition: with GDP in place of GTP)”.

Q: What about the binding [5] of the same binder?
A: The binding was “no binding (condition: with 10 mM 3'dGTP in place of GTP)”.

Q: And the binding [6]?
A: Its binding is “no binding”.

Q: What about the binding [7] of the same binder?
A: Its binding is “no binding”.

B6: Irga6-D186N (enzyme, mouse)
chain: T1 sequence with D186N
notes: Irga6 (IIGP1), mouse; mutant made in pGEX-4T-2-Irga6; also called G4-motif mutant; source: E. coli BL21, purified (glutathione Sepharose, GST cleaved off with thrombin, Superdex 75); not shown: GST, N-terminal, cleaved
Q: With B6 as the binder, how does the binding (Irga6-D186N (mouse)) read?
A: Its binding is “no binding (condition: with 1 mM XTP added to 10 mM GTP)”.

B7: Irga6-R159E (enzyme, UniProt Q9QZ85 1-411)
chain: T1 sequence with R159E
Q: For B7, which binding (Irga6-R159E (mouse)) is on record?
A: Its binding is “no binding (tested: 80 μM)”.

B8: Irga6-K161E (enzyme, UniProt Q9QZ85 1-411)
chain: T1 sequence with K161E
Q: B8 was tested. Which binding (Irga6-K161E (mouse)) did it give?
A: The binding was “no binding (tested: 80 μM)”.

B9: Irga6-N191R (enzyme, UniProt Q9QZ85 1-411)
chain: T1 sequence with N191R
Q: For B9, which binding (Irga6-N191R (mouse)) is on record?
A: The binding was “no binding (tested: 80 μM)”.

B10: Irga6-K196D (enzyme, UniProt Q9QZ85 1-411)
chain: T1 sequence with K196D
Q: How did the binding (Irga6-K196D (mouse)) turn out when B10 was run?
A: The binding was “no binding (tested: 80 μM)”.

B11: Irga6-E106K (enzyme, UniProt Q9QZ85 1-411)
chain: T1 sequence with E106K
Q: With B11 as the binder, how does the binding (Irga6-E106K (mouse)) read?
A: The binding was “no binding (tested: 80 μM)”.
